No constants are given. Whether binding was seen depends on the method and setting. Binding seen in cells or lysates may run through a third protein. Some binding calls cover weakened binding; strength is not graded here.
Columns and labels:
Experiment in all cases: pull-down; GST-GTPase (GTP[γS]-loaded, or constitutively active Q61L) on glutathione beads as bait, app. 15 µg; HEp2 cell lysate in Fish-buffer (50 mM Tris pH 7.4, 2 mM MgCl2, 10% glycerine, 100 mM NaCl, 1% NP40, 0.5 mg/ml BSA), 4°C, 60 min; immunoblot, densitometry; only the target purified
GST-Cdc42 (wild type) = GST-Cdc42 (wild type) (UniProt P60953)
GST-Cdc42 Q61L/S71E = GST-Cdc42 Q61L/S71E (UniProt P60953)
GST-Cdc42 Q61L = GST-Cdc42 Q61L (UniProt P60953)

By UniProt entry, the sequences of proteins in these tests, tags left out. Where a name states a change or a piece, a line headed by the entry shows the natural chain unless it says otherwise.
UniProt P60953: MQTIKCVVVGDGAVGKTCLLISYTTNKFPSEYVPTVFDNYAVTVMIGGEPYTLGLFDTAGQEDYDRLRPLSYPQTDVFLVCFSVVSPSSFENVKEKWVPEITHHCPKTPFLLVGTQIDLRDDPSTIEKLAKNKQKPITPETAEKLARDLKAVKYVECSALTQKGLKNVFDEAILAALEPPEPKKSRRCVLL
UniProt Q13153: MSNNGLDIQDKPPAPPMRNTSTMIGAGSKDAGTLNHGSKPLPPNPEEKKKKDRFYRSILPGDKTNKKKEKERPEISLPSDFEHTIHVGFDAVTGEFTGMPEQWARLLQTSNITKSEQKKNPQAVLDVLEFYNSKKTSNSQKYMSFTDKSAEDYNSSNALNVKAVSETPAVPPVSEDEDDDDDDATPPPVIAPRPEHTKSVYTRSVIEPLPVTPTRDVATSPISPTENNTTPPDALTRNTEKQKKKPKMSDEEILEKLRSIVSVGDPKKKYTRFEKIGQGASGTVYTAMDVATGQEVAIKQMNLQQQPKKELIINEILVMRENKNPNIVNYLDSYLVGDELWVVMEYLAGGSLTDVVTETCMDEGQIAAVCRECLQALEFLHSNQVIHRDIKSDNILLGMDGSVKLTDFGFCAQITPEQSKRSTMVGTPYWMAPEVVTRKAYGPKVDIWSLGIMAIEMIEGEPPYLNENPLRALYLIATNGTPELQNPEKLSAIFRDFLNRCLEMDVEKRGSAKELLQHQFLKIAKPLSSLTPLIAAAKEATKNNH
UniProt O00401: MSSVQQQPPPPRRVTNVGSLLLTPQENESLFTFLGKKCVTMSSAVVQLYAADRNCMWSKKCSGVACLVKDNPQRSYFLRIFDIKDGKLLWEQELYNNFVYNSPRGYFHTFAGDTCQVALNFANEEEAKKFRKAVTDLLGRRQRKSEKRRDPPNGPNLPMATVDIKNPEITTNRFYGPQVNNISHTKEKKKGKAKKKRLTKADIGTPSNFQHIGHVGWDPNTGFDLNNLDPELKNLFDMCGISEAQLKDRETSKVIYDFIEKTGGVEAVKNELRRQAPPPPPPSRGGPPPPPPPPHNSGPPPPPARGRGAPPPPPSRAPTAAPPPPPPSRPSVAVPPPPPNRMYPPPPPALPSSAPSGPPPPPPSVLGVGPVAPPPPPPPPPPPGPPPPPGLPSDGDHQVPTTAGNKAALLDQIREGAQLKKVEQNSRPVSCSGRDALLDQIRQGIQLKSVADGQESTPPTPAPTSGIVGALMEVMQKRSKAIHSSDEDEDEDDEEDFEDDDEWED
UniProt Q5VT25: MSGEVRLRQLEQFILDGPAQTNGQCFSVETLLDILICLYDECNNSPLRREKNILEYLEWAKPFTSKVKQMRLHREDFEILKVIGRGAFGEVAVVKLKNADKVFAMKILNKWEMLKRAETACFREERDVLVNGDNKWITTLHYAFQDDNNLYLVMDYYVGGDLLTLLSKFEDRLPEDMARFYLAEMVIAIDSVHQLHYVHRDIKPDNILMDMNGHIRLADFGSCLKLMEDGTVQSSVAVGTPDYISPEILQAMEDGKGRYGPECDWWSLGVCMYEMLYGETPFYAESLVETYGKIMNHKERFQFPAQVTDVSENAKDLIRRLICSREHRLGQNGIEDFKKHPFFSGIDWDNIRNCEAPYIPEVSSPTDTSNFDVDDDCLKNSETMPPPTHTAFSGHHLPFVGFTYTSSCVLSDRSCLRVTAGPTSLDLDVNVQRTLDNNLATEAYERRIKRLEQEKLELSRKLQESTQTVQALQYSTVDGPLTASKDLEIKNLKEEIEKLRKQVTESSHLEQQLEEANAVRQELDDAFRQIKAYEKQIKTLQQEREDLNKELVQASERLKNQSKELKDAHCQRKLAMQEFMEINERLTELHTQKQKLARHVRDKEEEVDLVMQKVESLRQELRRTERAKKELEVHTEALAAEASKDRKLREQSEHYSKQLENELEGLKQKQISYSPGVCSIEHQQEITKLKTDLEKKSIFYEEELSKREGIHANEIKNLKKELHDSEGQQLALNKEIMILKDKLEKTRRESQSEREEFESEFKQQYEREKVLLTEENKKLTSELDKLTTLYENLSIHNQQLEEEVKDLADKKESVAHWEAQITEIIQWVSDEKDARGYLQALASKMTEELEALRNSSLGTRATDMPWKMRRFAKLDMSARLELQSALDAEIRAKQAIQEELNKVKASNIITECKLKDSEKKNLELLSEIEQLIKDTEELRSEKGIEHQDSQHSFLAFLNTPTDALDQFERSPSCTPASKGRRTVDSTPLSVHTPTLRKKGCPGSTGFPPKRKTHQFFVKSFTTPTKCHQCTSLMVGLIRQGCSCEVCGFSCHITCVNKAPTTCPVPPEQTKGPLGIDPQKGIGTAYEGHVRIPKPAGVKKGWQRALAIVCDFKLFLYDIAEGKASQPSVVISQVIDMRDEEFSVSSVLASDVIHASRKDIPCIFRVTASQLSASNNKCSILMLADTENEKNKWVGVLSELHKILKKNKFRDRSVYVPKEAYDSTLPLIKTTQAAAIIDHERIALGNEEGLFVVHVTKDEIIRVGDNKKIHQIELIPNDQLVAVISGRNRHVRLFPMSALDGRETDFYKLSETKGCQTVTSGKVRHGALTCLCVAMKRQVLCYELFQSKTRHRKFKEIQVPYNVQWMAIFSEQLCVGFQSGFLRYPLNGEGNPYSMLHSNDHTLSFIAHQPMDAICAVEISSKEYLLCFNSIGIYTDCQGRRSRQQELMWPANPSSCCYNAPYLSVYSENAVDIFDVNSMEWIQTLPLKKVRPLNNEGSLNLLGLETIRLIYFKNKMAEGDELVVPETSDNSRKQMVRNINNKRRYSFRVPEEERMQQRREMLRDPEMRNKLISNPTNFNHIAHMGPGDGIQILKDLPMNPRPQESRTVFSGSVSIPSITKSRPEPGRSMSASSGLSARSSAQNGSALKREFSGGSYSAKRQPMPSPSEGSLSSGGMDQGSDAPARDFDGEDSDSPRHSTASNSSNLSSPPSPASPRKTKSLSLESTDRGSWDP
UniProt Q7L576: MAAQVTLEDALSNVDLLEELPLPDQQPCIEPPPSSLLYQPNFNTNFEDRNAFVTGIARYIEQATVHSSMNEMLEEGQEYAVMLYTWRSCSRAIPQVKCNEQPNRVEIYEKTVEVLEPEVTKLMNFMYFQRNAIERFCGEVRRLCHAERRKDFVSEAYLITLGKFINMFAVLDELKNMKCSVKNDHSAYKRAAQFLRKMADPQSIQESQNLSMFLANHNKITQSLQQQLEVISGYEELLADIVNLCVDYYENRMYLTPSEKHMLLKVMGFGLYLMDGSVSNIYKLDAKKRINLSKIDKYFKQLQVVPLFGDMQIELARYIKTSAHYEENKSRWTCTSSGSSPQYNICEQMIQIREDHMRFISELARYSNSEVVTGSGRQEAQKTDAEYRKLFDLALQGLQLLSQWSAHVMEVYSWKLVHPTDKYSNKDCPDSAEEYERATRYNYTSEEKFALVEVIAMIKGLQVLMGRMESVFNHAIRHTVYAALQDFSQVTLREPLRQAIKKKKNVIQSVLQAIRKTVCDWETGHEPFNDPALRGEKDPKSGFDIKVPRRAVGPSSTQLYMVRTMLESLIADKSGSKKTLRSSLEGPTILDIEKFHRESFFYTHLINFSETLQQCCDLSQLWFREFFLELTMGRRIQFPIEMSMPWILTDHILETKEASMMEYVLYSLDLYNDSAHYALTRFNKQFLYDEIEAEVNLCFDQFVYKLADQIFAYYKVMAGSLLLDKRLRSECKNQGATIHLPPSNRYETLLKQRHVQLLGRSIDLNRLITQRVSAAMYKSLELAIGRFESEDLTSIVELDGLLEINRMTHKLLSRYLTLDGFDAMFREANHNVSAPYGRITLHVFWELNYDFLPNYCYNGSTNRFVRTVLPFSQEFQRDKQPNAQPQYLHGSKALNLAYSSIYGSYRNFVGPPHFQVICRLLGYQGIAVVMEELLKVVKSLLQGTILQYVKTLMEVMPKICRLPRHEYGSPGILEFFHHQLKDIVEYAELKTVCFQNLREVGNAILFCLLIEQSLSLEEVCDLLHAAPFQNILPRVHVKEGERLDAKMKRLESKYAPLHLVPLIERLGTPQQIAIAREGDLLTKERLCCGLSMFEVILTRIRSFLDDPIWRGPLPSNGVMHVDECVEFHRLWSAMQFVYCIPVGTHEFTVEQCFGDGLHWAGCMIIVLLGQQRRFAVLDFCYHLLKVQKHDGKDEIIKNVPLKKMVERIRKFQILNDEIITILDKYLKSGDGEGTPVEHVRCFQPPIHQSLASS
UniProt P46940: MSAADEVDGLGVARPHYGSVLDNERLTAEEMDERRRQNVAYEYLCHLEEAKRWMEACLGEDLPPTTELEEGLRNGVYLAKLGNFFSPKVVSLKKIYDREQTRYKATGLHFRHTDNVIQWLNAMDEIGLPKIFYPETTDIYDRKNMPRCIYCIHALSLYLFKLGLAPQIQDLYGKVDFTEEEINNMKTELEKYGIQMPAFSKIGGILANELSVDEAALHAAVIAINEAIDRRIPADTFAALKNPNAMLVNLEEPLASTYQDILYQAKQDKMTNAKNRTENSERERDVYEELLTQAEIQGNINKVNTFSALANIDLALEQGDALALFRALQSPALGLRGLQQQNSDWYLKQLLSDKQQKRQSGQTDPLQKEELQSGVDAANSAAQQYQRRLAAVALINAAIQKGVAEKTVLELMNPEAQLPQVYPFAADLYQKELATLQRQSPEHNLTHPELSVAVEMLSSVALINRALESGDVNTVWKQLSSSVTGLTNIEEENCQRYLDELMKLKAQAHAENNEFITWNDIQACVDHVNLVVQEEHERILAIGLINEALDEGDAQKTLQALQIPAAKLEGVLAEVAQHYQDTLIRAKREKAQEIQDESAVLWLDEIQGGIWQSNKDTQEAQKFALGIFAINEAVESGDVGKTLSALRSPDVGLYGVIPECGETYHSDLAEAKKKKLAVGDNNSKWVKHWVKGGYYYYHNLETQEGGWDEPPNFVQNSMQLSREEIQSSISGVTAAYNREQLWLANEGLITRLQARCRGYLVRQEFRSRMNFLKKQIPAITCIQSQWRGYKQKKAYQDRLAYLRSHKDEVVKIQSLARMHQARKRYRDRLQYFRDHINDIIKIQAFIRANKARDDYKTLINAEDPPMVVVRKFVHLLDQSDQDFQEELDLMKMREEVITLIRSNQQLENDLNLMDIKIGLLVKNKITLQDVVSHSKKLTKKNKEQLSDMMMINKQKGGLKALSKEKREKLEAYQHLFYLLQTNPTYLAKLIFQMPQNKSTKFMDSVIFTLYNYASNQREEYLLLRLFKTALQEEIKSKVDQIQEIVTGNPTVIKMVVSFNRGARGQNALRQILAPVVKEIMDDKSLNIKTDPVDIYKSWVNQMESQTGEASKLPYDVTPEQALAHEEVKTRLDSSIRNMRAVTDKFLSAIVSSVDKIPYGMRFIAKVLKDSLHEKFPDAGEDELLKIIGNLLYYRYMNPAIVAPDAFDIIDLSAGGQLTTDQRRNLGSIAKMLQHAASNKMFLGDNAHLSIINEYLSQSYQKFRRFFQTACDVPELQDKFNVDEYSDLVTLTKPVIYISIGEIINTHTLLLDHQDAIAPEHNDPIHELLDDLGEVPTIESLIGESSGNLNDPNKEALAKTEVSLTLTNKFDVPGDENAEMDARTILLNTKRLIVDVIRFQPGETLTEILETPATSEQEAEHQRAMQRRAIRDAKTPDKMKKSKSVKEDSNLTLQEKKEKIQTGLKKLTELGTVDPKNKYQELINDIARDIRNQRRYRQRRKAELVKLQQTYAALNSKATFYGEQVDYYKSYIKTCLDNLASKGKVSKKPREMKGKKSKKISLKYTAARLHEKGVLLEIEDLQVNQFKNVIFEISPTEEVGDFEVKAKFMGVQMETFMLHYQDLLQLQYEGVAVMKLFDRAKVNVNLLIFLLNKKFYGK

Row | binding (GST-Cdc42 (wild type)) | binding (GST-Cdc42 Q61L/S71E) | binding (GST-Cdc42 Q61L) | Substance
1 | binds |  | binds | full length PAK1, endogenous (from UniProt Q13153 1-545)
2 | binds |  | binds | N-WASP, endogenous (from UniProt O00401 1-505)

The remaining lines, values behind:

Row | Substance | binding (GST-Cdc42 (wild type)) | binding (GST-Cdc42 Q61L/S71E) | binding (GST-Cdc42 Q61L)
3 | MRCK alpha (myotonic dystrophy related Cdc42 kinase alpha), endogenous (from UniProt Q5VT25 1-1732) | binds | binds | binds
4 | Sra-1 (specifically Rac1-associated protein), endogenous (from UniProt Q7L576 1-1253) | no binding |  | no binding
5 | IQGAP1, endogenous (from UniProt P46940 1-1657) |  |  | binds
